Article PMC11093223, “Cargo selective vesicle tethering: The structural basis for binding of specific cargo proteins by the Golgi tether component TBC1D23” (Science Advances, 2024)
Results are given in words; binding and its absence hold for the method and conditions named. For some assays here: In cells and extracts the contact can be indirect. Some results given as binding are weak or reduced against the parent protein; the word gives no strength. For some assays here: Where a sequence is shown, tags or fusion partners need not be part of it.

Sequences of proteins named here, by UniProt entry; tags and fusion partners are left off. A change or cut given only in a name is not applied to a line headed by its entry. A line that says so, or that is headed by a name, gives the form on record, which may keep a tag or linker. Residues count along the entry.
GST-TBC1D23 (559 to 684) (Q8K0F1, residues 559-684): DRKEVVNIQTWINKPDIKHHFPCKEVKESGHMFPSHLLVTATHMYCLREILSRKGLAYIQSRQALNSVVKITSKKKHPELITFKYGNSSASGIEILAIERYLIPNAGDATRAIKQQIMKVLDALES
Mouse TBC1D23 (559-677), C-terminal domain lacking VLDALES (Q8K0F1, residues 559-677): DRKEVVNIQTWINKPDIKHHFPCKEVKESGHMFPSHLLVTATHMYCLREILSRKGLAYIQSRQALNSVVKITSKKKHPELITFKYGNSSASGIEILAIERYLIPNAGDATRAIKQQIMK
TBC1D23 C-terminal domain I675W (Q8K0F1, form named): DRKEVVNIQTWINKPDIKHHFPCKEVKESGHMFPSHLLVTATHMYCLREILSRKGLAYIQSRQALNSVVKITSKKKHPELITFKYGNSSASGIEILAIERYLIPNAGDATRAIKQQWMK
TBC1D23 C-terminal domain with Lys632, Lys633 and Lys634 mutated to alanine (Q8K0F1, form named): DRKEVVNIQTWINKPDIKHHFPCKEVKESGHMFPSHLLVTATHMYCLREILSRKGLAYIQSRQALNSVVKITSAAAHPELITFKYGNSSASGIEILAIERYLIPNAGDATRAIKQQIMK
TBC1D23 C-terminal domain V626D (Q8K0F1, form named): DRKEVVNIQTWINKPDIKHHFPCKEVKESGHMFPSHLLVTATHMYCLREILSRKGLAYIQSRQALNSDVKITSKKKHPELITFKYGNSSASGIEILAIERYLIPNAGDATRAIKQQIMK

Key:
[1] = molecular target: Mouse TBC1D23 (559-677), C-terminal domain lacking VLDALES (mouse) (UniProt Q8K0F1); test: crystal structure; TBC1D23 (559-677, -VLDALES) with 1.5 times molar excess of syntaxin-16 peptide; space group P6_(5)22; 0.8 M potassium phosphate dibasic, 0.1 M Hepes/NaOH pH 7.5, 0.8 M sodium phosphate monobasic, 1% 1,2-butandiol; both purified
[2] = molecular target: Mouse TBC1D23 (559-684), C-terminal domain (mouse) (UniProt Q8K0F1); test: crystal structure; TBC1D23 full-length C-terminal domain (559-684) with 1.5 times molar excess of syntaxin-16 peptide; space group P6_(2)22, four copies in the asymmetric unit; 0.02 M citric acid, 0.08 M bis-tris propane pH 8.8, 16% PEG3350; both purified
[3] = molecular target: GST-TBC1D23 (559 to 684) (mouse) (UniProt Q8K0F1); test: pull-down; GST-tagged bait from bacterial lysate on glutathione-Sepharose beads (washed, once with 500 mM NaCl), 2 h at 4°C with clarified bacterial lysate containing the prey; 50 mM tris pH 7.4, 150 mM NaCl, 1 mM EDTA, 5 mM 2-mercaptoethanol, 1% Triton X-100; Coomassie stain or anti-His6 …; only the target purified
[4] = molecular target: TBC1D23 C-terminal domain I675W (mouse) (UniProt Q8K0F1); test: ITC; peptide (0.8 to 5 mM) titrated into 100 μM TBC1D23 C-terminal domain, 20°C, 100 mM NaCl, 100 mM tris pH 7.4, 1 mM TCEP, Nano ITC; both purified
[5] = molecular target: TBC1D23 C-terminal domain with Lys632, Lys633 and Lys634 mutated to alanine (mouse) (UniProt Q8K0F1); test: as above
[6] = molecular target: TBC1D23 C-terminal domain V626D (mouse) (UniProt Q8K0F1); test: as above

B1: syntaxin-16 peptide (209-221), wild type (peptide)
peptide: DDNTLYHRGFTED
[1]
  binding: binds
[2]
  binding: binds

B2: syntaxin-16 (1 to 281)–MBP–His6 (domain or fragment, UniProt O14662-2 1-281)
chain: MATRRLTDAFLLLRNNSIQNRQLLAEQLADDRMALVSGISLDPEAAIGVTKRPPPKWVDGVDEIQYDVGRIKQKMKELASLHDKHLNRPTLDDSSEEEHAIEITTQEITQLFHRCQRAVQALPSRARACSEQEGRLLGNVVASLAQALQELSTSFRHAQSGYLKRMKNREERSQHFFDTSVPLMDDGDDNTLYHRGFTEDQLVLVEQNTLMVEEREREIRQIVQSISDLNEIFRDLGAMIVEQGTVLDRIDYNVEQSCIKTEDGLKQLHKAEQYQKKNRKM
[3]
  binding: binds

B3: syntaxin-16 (151 to 225)–MBP–His6 (domain or fragment, UniProt O14662-2 151-225)
chain: LSTSFRHAQSGYLKRMKNREERSQHFFDTSVPLMDDGDDNTLYHRGFTEDQLVLVEQNTLMVEEREREIRQIVQS
[3]
  binding: binds

B4: syntaxin-16 (1-281 with T191A, L192A, and Y193A)–MBP–His6 (domain or fragment, UniProt O14662-2 1-281)
chain: MATRRLTDAFLLLRNNSIQNRQLLAEQLADDRMALVSGISLDPEAAIGVTKRPPPKWVDGVDEIQYDVGRIKQKMKELASLHDKHLNRPTLDDSSEEEHAIEITTQEITQLFHRCQRAVQALPSRARACSEQEGRLLGNVVASLAQALQELSTSFRHAQSGYLKRMKNREERSQHFFDTSVPLMDDGDDNAAAHRGFTEDQLVLVEQNTLMVEEREREIRQIVQSISDLNEIFRDLGAMIVEQGTVLDRIDYNVEQSCIKTEDGLKQLHKAEQYQKKNRKM
[3]
  binding: no binding

B5: syntaxin-16 (209–221) peptide (peptide, UniProt O14662 209-221)
peptide: DDNTLYHRGFTED
[4]
  binding: no binding (tested: KD > 300 μM)
[5]
  binding: no binding
[6]
  binding: no binding
